In PubChem BioAssay AID485344 (National Center for Advancing Translational Sciences (NCATS), 2010):
In all, about 340,000 compounds went through this assay and about 6,900 (2%) were called active. Cut-off read from the data, not from the text of the source: active = inhibition above about 30%; inactive = below that, where a call was filed. The entries are a selection whose mix differs from that of the whole data set. Entries without a call were filed so in the source.

Target: D(2) dopamine receptor (Homo sapiens) (UniProt P14416)
Assay: HTS Assay for Allosteric Antagonists of the Human D2 Dopamine Receptor: Primary Screen for Antagonists; note: 0% is about no effect
Conditions: HEK293 TREx D2 cells, calcium flux, dopamine EC80; at 10 µM; stronger effect = higher value
Summary of the method: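 HEK293 T-REx D2 cells, tet-induced, calcium dye no-wash. Cpd pintool add, 180 s kinetic, then EC80 DA, 180 s kinetic. Ca flux read.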

Chain of UniProt P14416 (P14416 whole entry, looked up): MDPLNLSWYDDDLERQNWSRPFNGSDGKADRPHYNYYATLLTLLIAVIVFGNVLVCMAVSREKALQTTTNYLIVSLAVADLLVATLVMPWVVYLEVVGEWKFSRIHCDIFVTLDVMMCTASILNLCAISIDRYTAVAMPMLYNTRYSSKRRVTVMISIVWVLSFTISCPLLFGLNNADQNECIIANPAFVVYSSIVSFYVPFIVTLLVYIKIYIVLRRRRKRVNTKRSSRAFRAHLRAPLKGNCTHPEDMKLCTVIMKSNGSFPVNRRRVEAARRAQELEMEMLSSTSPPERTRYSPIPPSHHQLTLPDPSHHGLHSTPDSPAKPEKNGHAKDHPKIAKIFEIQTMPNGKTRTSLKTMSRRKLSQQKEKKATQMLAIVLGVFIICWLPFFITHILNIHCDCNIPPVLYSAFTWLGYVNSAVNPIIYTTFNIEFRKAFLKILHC

Row | Structure (SMILES) | inhibition
1 | COCc1cc(=O)n2c([nH]c3ccccc32)c1C#N | active: 36.9%
2 | COc1ccc(CN(C(=O)COc2ccccc2OC)C2CCS(=O)(=O)C2)cc1 (stereo unspecified) | -10.7%
3 | Cc1ccc(C)c(NC(=O)CN2C(=O)CCc3ccccc32)c1 | -16.8%
4 | CC(=O)c1ccc(OC(=O)COc2ccccc2Cl)cc1 | active: 47.8%
5 | CCCCOc1ccc(C(=O)NCCS(=O)(=O)N2CCN(c3ccc(F)cc3)CC2)cc1 | -11.1%
6 | CCc1cnc2c(c1SCC(=O)N1CCCCC1)c(=O)n(C)c(=O)n2C | -5.2%
7 | CCOc1ccc(CNCc2c(C(=O)O)n(Cc3ccccc3F)c3cc(OC)ccc23)cc1 | -24.7%
8 | COc1ccc(-c2cc(C(=O)O)n(Cc3ccccc3)n2)cc1 | -22.3%
9 | COc1ccc(C(=O)NC2(C(F)(F)F)C(=O)NC(C)=C2C#N)cc1OC (stereo unspecified) | -4.29%
10 | CCC(=O)N1CCc2cc(Br)cc(S(=O)(=O)N3CCC(C(=O)Nc4ccc(OC)cc4)CC3)c21 | 18.6%
11 | COc1ccc(NC(=O)CSc2nc(-c3cccs3)cc(C(F)(F)F)n2)cc1OC | -12.3%
12 | O=C(CSc1nc2ccccc2nc1Cc1ccccc1)NCc1ccccc1Cl | 7.55%
13 | Cc1cc(C)c(NC(=O)Cn2c(=O)n(CC(=O)NCc3ccccc3Cl)c(=O)c3sccc32)c(C)c1 | 14.5%
14 | CCc1ccc(CNC(=O)C2CCCN(c3nc4ccccc4o3)C2)cc1 (stereo unspecified) | active: 39.6%
15 | CC(=O)c1cc2c(cc1N/C(=N/S(=O)(=O)c1ccc(C)cc1)c1ccccc1)OCO2 | 12%
16 | COC(=O)c1ccc(NC(=O)CCS(=O)(=O)c2ccc(Br)cc2)cc1 | 13.4%
17 | CCOC(=O)c1c(NC(=O)/C=C/c2ccc(OCC)cc2)sc(C)c1C | 1.31%
18 | COC(=O)C(NC(=O)CC(C)C)(Nc1nc2c(s1)CCCC2)C(F)(F)F (stereo unspecified) | -4.78%
19 | CCOc1ccc(N2CC(NC(=O)CCc3ccccc3)CC2=O)cc1 (stereo unspecified) | -23.7%
20 | Cc1ccc(C)c(N2CCN(C(=O)c3ccc(NC(=O)c4nsc5ccccc45)cc3)CC2)c1 | -6.29%
21 | CCc1ccccc1NC(=O)Nc1c[nH]c(=O)[nH]c1=O | 2.82%

Row | Structure (SMILES) | inhibition
22 | COc1cc(C(=O)Oc2c(Sc3ccccc3)c(C)nn2-c2ccccc2)cc(OC)c1OC | 0.513%
23 | Cc1ccc(/C=C/c2onc(C)c2S(=O)(=O)N2CCC(C(=O)Nc3ccc(C)c(N(C)C)c3)CC2)cc1 | -5.51%
24 | Cc1nnc(SCC(=O)NCCN2C(=O)CSC2=O)n1-c1ccccc1 | active: 46.7%
25 | Cc1ccc(CNC(=O)CCCCCn2c(=O)[nH]c3ccccc3c2=O)cc1 | 2.74%
26 | Cc1nn(-c2ccccc2)c(OC(=O)C(C)C)c1Sc1ccc(Cl)cc1 | 7.12%
27 | CC(=O)c1cccc(-n2c(=O)c3c4c(sc3n(CC(=O)c3ccccc3)c2=O)CN(C(C)=O)CC4)c1 | -1.62%
28 | Cc1nc(C)c(-c2ccc(SCC(=O)Nc3ccc(Br)cc3)nn2)s1 | 4.01%
29 | Cc1ccc(C)c(CN2C(=O)c3ccccc3S(=O)(=O)c3ccc(C(=O)N(C)C4CCCCC4)cc32)c1 | -18.2%
30 | CC(=O)c1cc2c(cc1N/C(=N/S(=O)(=O)c1ccc(Cl)cc1)c1ccc(F)cc1)OCO2 | -3.66%
31 | CCn1c(C)c(C2N3CC4(C)CN2CC(C)(C3)C4=O)c2ccccc21 (stereo unspecified) | 5.82%
32 | CCc1nnc(NC(=O)CSc2nccn2-c2ccc(OC)cc2)s1 | -10.8%
33 | CSc1ccc(CCNC(=O)c2cnc3c(C)cccn3c2=O)cc1 | 16.2%
34 | COc1cc(CNCc2ccccc2)c(Br)cc1OC1CCCC1 | active: 50.9%
35 | COc1ccc(NC(=O)c2cc(S(=O)(=O)N3CCOCC3)cn2C)c(OC)c1 | active: 41%
36 | CCOC(=O)Cn1c(=O)n(CC2CCCO2)c2nc(-c3ccc(C)cc3)nc(C(N)=O)c21 (stereo unspecified) | 21.9%
37 | CC(=O)c1ccc(S(=O)(=O)N2CCn3cccc3C2c2ccc(C)cc2)cc1 (stereo unspecified) | 19.8%
38 | O=C1C2CCCN2C(=O)N1CCCCN1CCN(c2cccc(C(F)(F)F)c2)CC1 (stereo unspecified) | active: 106%
39 | Cc1ccc2nc3c(cc(C(=O)NCC4CCCO4)c(=N)n3C(C)C)c(=O)n2c1 (stereo unspecified) | 11.3%
40 | COc1ccccc1NC(=O)C(=O)NCC(c1ccc2c(c1)OCO2)N1CCOCC1 (stereo unspecified) | 13.3%
41 | COc1ccccc1/C=C/c1nc2ccccc2n1C(C)C | -11.4%
42 | COc1ccc(Cl)cc1NC(=O)Cc1ccc(NC(=O)N2CCCCc3ccccc32)cc1 | 4.1%

Row | Structure (SMILES) | inhibition
43 | COc1ccc(CNC(=O)Cc2c(C)c3cc4c(C)coc4c(C)c3oc2=O)cc1 | -8.49%
44 | Cc1ccc(-c2noc(C(C)NS(=O)(=O)c3ccc(C)cc3)n2)cc1 (stereo unspecified) | -22.6%
45 | CN1C(=O)Cc2cc(S(=O)(=O)N3CCN(c4ccccc4F)CC3)ccc21 | 2.9%
46 | O=C(Nc1cccc(Cl)c1)c1cnc2sc(N3CCCC3)nn2c1=O | -7.65%
47 | Cc1ccc(C)c(CN2CCCN(Cc3ccc(F)cc3)S2(=O)=O)c1 | 0.406%
48 | O=C(NCc1ccco1)c1ccc2c(c1)C(=O)c1ccccc1-2 | active: 30%
49 | O=C1/C(=C/C=C/c2ccco2)SC(=S)N1NS(=O)(=O)c1ccccc1 | active: 41.7%
50 | Cc1nc(-n2nc(C)c(Cc3ccccc3Cl)c2C)sc1C(=O)Nc1ccccc1F | 10%
51 | Fc1ccc(N2CCN(C3CCC(c4ccccc4)CC3)CC2)cc1 (stereo unspecified) | active: 53.3%
52 | Cc1ccc(-n2c(Cc3ccccc3)nnc2SCc2nc(-c3cccs3)no2)cc1 | 7.39%
53 | O=c1c2cc3c(cc2n(Cc2ccc(Cl)cc2)c(=O)n1Cc1nc(-c2ccccc2)no1)OCO3 | -1.27%
54 | Cc1ccc(/C=C/c2onc(C)c2S(=O)(=O)N2CCC(C(=O)N3CCC(N(C)C(C)C)CC3)CC2)cc1 | 1.41%
55 | CCOc1ccc(NC(=O)CCN2CCN(c3ccccc3)CC2)cc1 | active: 83.2%
56 | CCOC(=O)c1ccccc1NC(=O)CSc1nc2cn(CC)nc2c(=O)n1Cc1ccc(Cl)cc1 | 11.4%
57 | Cc1ccc2c(c1)c1c(c(=O)n(-c3cccc(Cl)c3)c(=O)n1CC(=O)Nc1c(C)cccc1C)n2C | -8.71%
58 | Cc1ccc(CN2CCSc3ccc(C(=O)N4CCN(c5ccccc5)CC4)cc32)cc1 | -0.257%
59 | COc1ccc(N2CCN(C(=O)C3CCN(S(=O)(=O)c4cccs4)CC3)CC2)cc1 | -27.6%
60 | COc1ccc(CNC(=O)C(=O)Nc2ccc(OC)cc2OC)cc1 | 7.78%
61 | CCOC(=O)c1cnc2c(C)c(Cl)ccc2c1NCCc1ccccc1 | 17.8%
